Some of the results follow.
B1: PhoQ; a variant is named by its letters at X, in order, P23837 (parent)
chain: MKKLLRLFFPLSLRVRFLLATAAVVLVLSLAYGMVALIGYSVSFDKTTFRLLRGESNLFYTLAKWENNKLHVELPENIDKQSPTMTLIYDENGQLLWAQRDVPWLMKMIQPDWLKSNGFHEIEADVNDTSLLLSGDHSIQQQLQEVREDDDDAEMTHSVAVNVYPATSRMPKLTIVVVDTIPVELKSSYMVWSWFIYVLSANLLLVIPLLWVAAWWSLRPIEALAKEVRELEEHNRELLNPATTRELTSLVRNLNRLLKSERERYDKYRTTLTDLTHSLKTPLXXLQXXLRSLRSEKMSVSDAEPVMLEQISRISQQIGYYLHRASMRGGTLLSRELHPVAPLLDNLTSALNKVYQRKGVNISLDISPEISFVGEQNDFVEVMGNVLDNACKYCLEFVEISARQTDEHLYIVVEDDGPGIPLSKREVIFDRGQRVDTLRPGQGVGLAVAREITEQYEGKIVAGESMLGGARMEVIFGRQHSAPKDE

Variants of: B1
Assay: enrichment ratio after two sorts for PhoP signalling (ratio (wild type AVST 3.29)); higher = more functional
Details: with PhoP (E. coli)
MVYI showed an enrichment ratio of at most 0.25. DAVY showed an enrichment ratio of at most 0.25. Work on LMCA yielded an enrichment ratio of at most 0.25. YHSE showed an enrichment ratio of at most 0.25. Variant AQYC has an enrichment ratio of at most 0.25. In the case of QYWC, the enrichment ratio is reported as at most 0.25. In the case of PYIA, the enrichment ratio is reported as at most 0.25. THEF gave an enrichment ratio of at most 0.25. Variant GRNL has an enrichment ratio of at most 0.25. HFAL showed an enrichment ratio of at most 0.25. In the case of MAVA, the enrichment ratio is reported as at most 0.25. IIHD showed an enrichment ratio of at most 0.25. Work on DYCE yielded an enrichment ratio of at most 0.25. Variant IHFE has an enrichment ratio of at most 0.25. Work on ADTK yielded an enrichment ratio of at most 0.25. Work on IQFH yielded an enrichment ratio of at most 0.25. In the case of ECFD, the enrichment ratio is reported as at most 0.25. EFLH showed an enrichment ratio of at most 0.25. AFAW gave an enrichment ratio of at most 0.25. In the case of TNPV, the enrichment ratio is reported as at most 0.25. In the case of QVTN, the enrichment ratio is reported as at most 0.25. QKTV gave an enrichment ratio of at most 0.25. With MAME the enrichment ratio was at most 0.25. Work on IWCP yielded an enrichment ratio of at most 0.25. PPRY was tested, and the enrichment ratio was at most 0.25. MLQG showed an enrichment ratio of at most 0.25. AHGI was tested, and the enrichment ratio was at most 0.25. In the case of QSYD, the enrichment ratio is reported as at most 0.25. Variant YEAT has an enrichment ratio of at most 0.25. With QAHF the enrichment ratio was 15.5. In the case of IQHC, the enrichment ratio is reported as at most 0.25. LNDV showed an enrichment ratio of at most 0.25. Work on GARS yielded an enrichment ratio of at most 0.25. Work on LKHP yielded an enrichment ratio of at most 0.25. PCVL gave an enrichment ratio of at most 0.25. LTFQ was tested, and the enrichment ratio was 4.48. Work on VPPK yielded an enrichment ratio of at most 0.25. Variant MVNN has an enrichment ratio of at most 0.25. Variant LERV has an enrichment ratio of at most 0.25. GAIH showed an enrichment ratio of at most 0.25. With DRET the enrichment ratio was at most 0.25. With PQRS the enrichment ratio was at most 0.25. For NYSE, the enrichment ratio was at most 0.25. Variant KSHK has an enrichment ratio of at most 0.25. Variant TDLY has an enrichment ratio of 2.03. With GVAT the enrichment ratio was at most 0.25. ADDQ was tested, and the enrichment ratio was at most 0.25. In the case of DQYI, the enrichment ratio is reported as at most 0.25. FDEC gave an enrichment ratio of at most 0.25. With DGTW the enrichment ratio was at most 0.25. MDAY showed an enrichment ratio of at most 0.25. With LPWV the enrichment ratio was at most 0.25. For GCIV, the enrichment ratio was at most 0.25. EARD gave an enrichment ratio of at most 0.25. For YFNH, the enrichment ratio was at most 0.25. RSTT showed an enrichment ratio of at most 0.25. SHPL gave an enrichment ratio of at most 0.25. For GSPM, the enrichment ratio was 0.891. FEWQ gave an enrichment ratio of at most 0.25. HSTV showed an enrichment ratio of 9.02. LCVH gave an enrichment ratio of at most 0.25. In the case of MTLV, the enrichment ratio is reported as 6.98. FGHS showed an enrichment ratio of at most 0.25. Work on TMRA yielded an enrichment ratio of 0.554. In the case of PKNS, the enrichment ratio is reported as at most 0.25. For FEVN, the enrichment ratio was at most 0.25. SWRR was tested, and the enrichment ratio was at most 0.25. DLMY gave an enrichment ratio of at most 0.25. Variant NFPI has an enrichment ratio of at most 0.25. With QFIC the enrichment ratio was at most 0.25. PTCE showed an enrichment ratio of at most 0.25. IYWV was tested, and the enrichment ratio was at most 0.25. LGCF was tested, and the enrichment ratio was at most 0.25. Work on VHGT yielded an enrichment ratio of at most 0.25. MVMM gave an enrichment ratio of at most 0.25. Work on DFGG yielded an enrichment ratio of at most 0.25. HWTL was tested, and the enrichment ratio was at most 0.25. QEFY showed an enrichment ratio of at most 0.25. With IVVH the enrichment ratio was at most 0.25. For FLIM, the enrichment ratio was at most 0.25. Variant HDTN has an enrichment ratio of at most 0.25. Variant TDNF has an enrichment ratio of at most 0.25. AHGG was tested, and the enrichment ratio was at most 0.25. In the case of TPCK, the enrichment ratio is reported as at most 0.25. QSWQ was tested, and the enrichment ratio was 33.6. MYFD gave an enrichment ratio of at most 0.25. Variant QPSP has an enrichment ratio of at most 0.25. FEDH was tested, and the enrichment ratio was at most 0.25. Work on HRFL yielded an enrichment ratio of at most 0.25. LKQC showed an enrichment ratio of at most 0.25. With IKQS the enrichment ratio was at most 0.25. Variant DWYA has an enrichment ratio of at most 0.25. Work on VQEW yielded an enrichment ratio of at most 0.25. In the case of DNVG, the enrichment ratio is reported as at most 0.25. With ILNI the enrichment ratio was at most 0.25. Work on PEQE yielded an enrichment ratio of at most 0.25. In the case of ILPI, the enrichment ratio is reported as at most 0.25. Variant CPFS has an enrichment ratio of at most 0.25. GHPL gave an enrichment ratio of at most 0.25. RHVN showed an enrichment ratio of at most 0.25. WPDW was tested, and the enrichment ratio was at most 0.25. LVDL gave an enrichment ratio of at most 0.25. In the case of EKAW, the enrichment ratio is reported as at most 0.25. In the case of RSHA, the enrichment ratio is reported as at most 0.25. Variant LTSE has an enrichment ratio of at most 0.25. In the case of KLHE, the enrichment ratio is reported as at most 0.25. For KADQ, the enrichment ratio was at most 0.25. For ESGI, the enrichment ratio was at most 0.25. WKWV gave an enrichment ratio of at most 0.25. With DQHP the enrichment ratio was at most 0.25. For SIYH, the enrichment ratio was at most 0.25. For KVSN, the enrichment ratio was at most 0.25. FSNQ was tested, and the enrichment ratio was at most 0.25. Variant VPDF has an enrichment ratio of at most 0.25. In the case of TCIY, the enrichment ratio is reported as at most 0.25. VTNH gave an enrichment ratio of at most 0.25. Variant TKEH has an enrichment ratio of at most 0.25. WSRA gave an enrichment ratio of at most 0.25. Work on ITSS yielded an enrichment ratio of at most 0.25. NENV showed an enrichment ratio of at most 0.25. For TDNS, the enrichment ratio was 3.33. In the case of ASMV, the enrichment ratio is reported as 7.76. In the case of FWCR, the enrichment ratio is reported as at most 0.25. Variant QVFF has an enrichment ratio of at most 0.25. SCFQ gave an enrichment ratio of 0.903. ITRH showed an enrichment ratio of at most 0.25. For DNPK, the enrichment ratio was at most 0.25. In the case of WRIS, the enrichment ratio is reported as at most 0.25. Variant WHQM has an enrichment ratio of at most 0.25. For VRMP, the enrichment ratio was at most 0.25. In the case of LPVY, the enrichment ratio is reported as at most 0.25. For FTEL, the enrichment ratio was at most 0.25. RRCS was tested, and the enrichment ratio was at most 0.25. Work on FFPF yielded an enrichment ratio of at most 0.25. Work on NRTT yielded an enrichment ratio of at most 0.25. Variant WSFN has an enrichment ratio of at most 0.25. KYHG was tested, and the enrichment ratio was at most 0.25. Work on YRQF yielded an enrichment ratio of at most 0.25. For VCQH, the enrichment ratio was at most 0.25. HENL was tested, and the enrichment ratio was at most 0.25. Work on DASA yielded an enrichment ratio of at most 0.25. For MKPH, the enrichment ratio was at most 0.25. With FSWH the enrichment ratio was at most 0.25. For RCNY, the enrichment ratio was at most 0.25. In the case of EHAI, the enrichment ratio is reported as at most 0.25. Variant KFNI has an enrichment ratio of at most 0.25. YKYD gave an enrichment ratio of at most 0.25. DWIQ was tested, and the enrichment ratio was at most 0.25. YLCG was tested, and the enrichment ratio was at most 0.25. RELA gave an enrichment ratio of at most 0.25. With KMGD the enrichment ratio was at most 0.25. In the case of EGIL, the enrichment ratio is reported as at most 0.25. For YGVK, the enrichment ratio was at most 0.25. With RKKF the enrichment ratio was at most 0.25. For NTRQ, the enrichment ratio was at most 0.25. Work on AHAL yielded an enrichment ratio of at most 0.25. GPVN showed an enrichment ratio of at most 0.25. YGPK gave an enrichment ratio of at most 0.25. LTHP was tested, and the enrichment ratio was at most 0.25. In the case of LRWL, the enrichment ratio is reported as 0.506. QLCW gave an enrichment ratio of at most 0.25. QNHI was tested, and the enrichment ratio was at most 0.25. For PTEV, the enrichment ratio was at most 0.25. With SFSM the enrichment ratio was 1.44. In the case of QIGT, the enrichment ratio is reported as at most 0.25. KVTK was tested, and the enrichment ratio was at most 0.25. KKGY was tested, and the enrichment ratio was at most 0.25. MAIA showed an enrichment ratio of at most 0.25. For NKAD, the enrichment ratio was at most 0.25. With PMTF the enrichment ratio was at most 0.25. For VEAA, the enrichment ratio was at most 0.25. Variant AMHL has an enrichment ratio of at most 0.25. With QGMS the enrichment ratio was at most 0.25. IAQP gave an enrichment ratio of at most 0.25. Work on YCYQ yielded an enrichment ratio of at most 0.25. GFAY showed an enrichment ratio of at most 0.25. In the case of YRMW, the enrichment ratio is reported as at most 0.25. Work on ERQH yielded an enrichment ratio of at most 0.25. Variant HGVF has an enrichment ratio of at most 0.25. FVCE gave an enrichment ratio of at most 0.25. SKLM showed an enrichment ratio of 16.3. SWVG gave an enrichment ratio of at most 0.25. With FLCM the enrichment ratio was at most 0.25. LPRQ showed an enrichment ratio of at most 0.25. Variant IQPA has an enrichment ratio of at most 0.25. With QLLH the enrichment ratio was at most 0.25. YCMH gave an enrichment ratio of at most 0.25. DWDI gave an enrichment ratio of at most 0.25. For ADCH, the enrichment ratio was 9.13. For NQWK, the enrichment ratio was at most 0.25. With LGYA the enrichment ratio was 0.297. WDFK showed an enrichment ratio of at most 0.25. Work on TATR yielded an enrichment ratio of at most 0.25. With PISA the enrichment ratio was at most 0.25. Work on NLER yielded an enrichment ratio of at most 0.25.
